# Test results: article PMC2809015 (Biochemistry, 2009)
# T1: HscA, Hsp70-class molecular chaperone of the isc operon (E. coli, UniProt P0A6Z1 1-616)
# T1 sequence (looked up): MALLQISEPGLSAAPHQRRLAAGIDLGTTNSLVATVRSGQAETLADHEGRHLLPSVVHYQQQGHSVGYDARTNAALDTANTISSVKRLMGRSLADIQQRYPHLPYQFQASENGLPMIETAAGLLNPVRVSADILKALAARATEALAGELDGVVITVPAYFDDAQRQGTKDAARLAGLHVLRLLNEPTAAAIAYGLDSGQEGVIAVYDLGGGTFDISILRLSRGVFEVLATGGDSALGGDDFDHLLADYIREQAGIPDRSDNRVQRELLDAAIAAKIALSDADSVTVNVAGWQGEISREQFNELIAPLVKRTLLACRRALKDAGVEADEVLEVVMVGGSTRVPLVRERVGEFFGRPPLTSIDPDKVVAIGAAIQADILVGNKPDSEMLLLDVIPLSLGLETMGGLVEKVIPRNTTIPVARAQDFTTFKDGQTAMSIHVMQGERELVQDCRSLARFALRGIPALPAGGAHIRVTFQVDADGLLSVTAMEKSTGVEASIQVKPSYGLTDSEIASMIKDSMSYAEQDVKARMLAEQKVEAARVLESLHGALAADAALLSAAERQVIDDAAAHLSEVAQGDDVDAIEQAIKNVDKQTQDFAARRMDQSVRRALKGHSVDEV
# Target: T1, HscA, Hsp70-class molecular chaperone …
# Experiment: molecular weight filtration assay
binder,measurement,value
E. coli thioredoxin (TrxA) (natural protein) not shown,Kd,≥ 500 µM
